The text below walks through data of ChEMBL document CHEMBL4888484, “Replenishing the malaria drug discovery pipeline: Screening and hit evaluation of the MMV Hit Generation Library 1 (HGL1) against asexual blood stage Plasmodium falciparum ,using a nano luciferase reporter read-out” (2022).

About 540 (0.36%) of roughly 150,000 compounds showed an effect of 50% or more. The list shows a part of the results.

The subject of this assay is Plasmodium falciparum. Kind of assay: Primary screen in NF54 nanoGlo assay, in single point, at 2uM, 72h; a lower Z score goes with more inhibition. It counts as functional, Erythrocyte. The following applies: timepoint 72 hour.
As to `O=S(=O)(CCCOc1ccccc1)N1CCc2ncncc2C1`, the “% Inhibition” value was -5% and the Z score came to 0.89.
In the case of `Cc1cnc(CNC(=O)Cn2c(C)nn(-c3ccc(Cl)cc3)c2=O)cn1`, the “% Inhibition” value is listed as -18% and the Z score stood at 3.41.
In the same order, the values of `O=C1C(N2CCCCC2c2nccs2)CCN1CC(F)(F)F` (configuration not stated) are -1% and 0.21.
In the same order, the values of `O=C(Cn1nc(C(F)(F)F)c2c1CCOC2)NCc1nccs1` are -7% and 1.35.
In the case of `CC1CCCCC1NC(=O)CC(C)(C)C` (configuration not stated), the “% Inhibition” value was -5% and the Z score is reported as 0.64.
On the same counts, the results for `CCOC(=O)CCC(=O)N1CCN(C[C@H](OCc2ccc(C(=O)OC)cc2)c2cccc(OC)c2)CC1` are -8% and 1.08.
In the same order, the values of `COC(=O)[C@@H](C)NC(=O)[C@H]1CN(C(=O)Nc2ccccc2)CCN1C(=O)NC(C)C` are -7% and 1.06.
On to `NC(=O)c1ccc(COc2ccc(C(=O)c3ccc(F)cc3)cc2)cc1`, for which the “% Inhibition” value was -33% and the Z score is on record as 3.92.
In the case of `CC(C)(C)OC(=O)NC1CCCC1C(=O)NCC(F)(F)F` (configuration not stated), the “% Inhibition” value is given as -8% and the Z score amounted to 1.18.
In the case of `O=C1CC(CC(=O)N2CCCCC2CO)(c2ccccc2)C(=O)N1CCc1ccccn1` (configuration not stated), the “% Inhibition” value is 4% and the Z score was -0.65.
Regarding `CC[C@@H](C(=O)Nc1cccc(-c2cn[nH]c2)c1)N(C)C`, the “% Inhibition” value is given as -1% and the Z score is recorded as 0.15.
On the same counts, the results for `CC(C)c1cc(C(=O)N(C)c2ccc(Br)cn2)no1` are -10% and 1.29.
Consider `Cc1nc(N(C)C)nc(C)c1NC(=O)C(C)(C)C`, for which the “% Inhibition” value is on record as -5% and the Z score was 0.82.
For the molecule `CN1C(=O)CCCC[C@H]1C(=O)NCc1ccncc1`, the “% Inhibition” value turned out to be 3% and the Z score is given as -0.31.
In the same order, the values of `Cc1cccc(CNC(=O)CCn2ccnn2)n1` are -6% and 0.68.
With `C=CCN1C[C@@H](c2nc(-c3ccc(CC)cc3)c[nH]2)CC1=O`, the “% Inhibition” value is reported as -9% and the Z score is listed as 1.56.
For `CCC(C)c1ccccc1N1CC(C(=O)Nc2ccc(N3CCCC3=O)c(C)c2)CC1=O` (configuration not stated), the “% Inhibition” value is 0% and the Z score was 0.02.
Regarding `O=S(=O)(NCCCC[C@H]1CCCO1)N1CCCC1`, the “% Inhibition” value is given as -14% and the Z score is recorded as 2.51.
In the same order, the values of `CC(=O)NC[C@@H]1CN(c2nnc(C(F)(F)F)s2)C[C@H]1c1cncn1C` are -4% and 0.59.
On to `c1nc2nc[nH]c(NC3CCCCC3)c-2n1`, for which the “% Inhibition” value came out at 35% and the Z score was -4.76.
On the same counts, the results for `CCS(=O)(=O)NCCCNC(=O)c1cc(C)c(C)cc1Cl` are -7% and 1.27.
For `Cc1n[nH]c(C)c1NC(=O)C1=NO[C@@H](CNC(=O)OC(C)(C)C)C1`, the “% Inhibition” value amounted to 33% and the Z score is listed as -1.29.
On the same counts, the results for `Cn1cnc2cc(NC(=O)C3CCN(c4noc5ccc(Cl)cc45)CC3)ccc21` are -6% and 0.79.
In the same order, the values of `Cn1nc(-c2ccsc2)nc1C1CN(C(=O)NC2CCCCC2)C1` are -1% and 0.23.
Take `CCCCN(CC)C(=O)[C@@H](c1cnn(C)c1)N1CCOCC1`: the “% Inhibition” value is given as -19% and the Z score is 2.44.
On to `CC(C)(C)c1nnc(N2CCN(Cc3ccc4c(c3)OCO4)CC2)o1`, for which the “% Inhibition” value amounted to 5% and the Z score was -0.44.
Take `Cn1nc(C2CCCCC2)cc1NC(=O)c1cccc(N)c1`: the “% Inhibition” value came to 17% and the Z score is given as -1.93.
For `Oc1ccccc1CNc1cccc2c[nH]nc12`, the “% Inhibition” value was -4% and the Z score was found to be 0.68.
On the same counts, the results for `CCOC(=O)c1cc(-c2ccc(N3CCN(C(=O)c4ccc(OC)c(F)c4)CC3)cc2)n(-c2ccc(OC)cc2)n1` are -9% and 1.05.
In the same order, the values of `COc1ccc(OC)c(NC(=O)Cn2cnc3nc(N4CCOCC4)ncc3c2=O)c1` are 37% and -0.92.
In the same order, the values of `CCCc1cc(C(=O)N2C[C@@H]3CC[C@H]2CN(Cc2c(C)noc2C)C3)n(C)n1` are -4% and 0.51.
For `Cc1cccc(-n2ncc3c(O)c(C(=O)NCc4ccc(F)cc4F)c(=O)[nH]c32)c1`, the “% Inhibition” value is -17% and the Z score amounted to 2.22.
For `COc1cc(CC(=O)N2C3CCC2Cn2c(n[nH]c2=O)C3)cc(OC)c1` (configuration not stated), the “% Inhibition” value is recorded as -2% and the Z score was 0.28.
Regarding `CCCn1nccc1NC(=O)NCc1cnnn1CC`, the “% Inhibition” value is -1% and the Z score was 0.15.
As for `CCN(CC)C(=O)c1cnc2nc(C)ccc2c1Nc1cc(C)ccc1C`, the “% Inhibition” value is recorded as -7% and the Z score is 1.06.
In the same order, the values of `Cc1cc(C)c(-c2ccc(C(=O)N(C)CCn3ccnc3C)cc2)cc1C` are -5% and 0.69.
With `Cc1csc(CN[C@@H](C)c2nc(C3CCCCC3)no2)n1`, the “% Inhibition” value was 2% and the Z score is listed as -0.28.
Consider `O=C1CN(C(=O)c2cccc(NC(=O)CC3(N4Cc5ccccc5C4=O)CCCCC3)c2)CCN1`, for which the “% Inhibition” value was -2% and the Z score amounted to 0.3.
As for `COc1cccc(C(C)N2CCCC(CN3CCOCC3)C2)c1` (configuration not stated), the “% Inhibition” value is -6% and the Z score is given as 0.87.
As for `O=S(=O)(c1ccc(-c2noc(-c3ccc(F)c(F)c3)n2)cc1)N1CCOCC1`, the “% Inhibition” value came to 5% and the Z score is -0.84.
In the same order, the values of `CCOc1ccc(NC(=O)c2cnn3c2NC(C(=O)O)=C[C@H]3c2cccc(Cl)c2)cc1` are -21% and 1.82.
